Measured values as given in PubChem BioAssay AID463173 (ICCB-Longwood Screening Facility, Harvard Medical School, 2010).
Screen size: about 52,000 compounds; about 1,700 (3.3%) were called active. Cut-off read from the data, not from the text of the source: active = survival mostly below about 52% (no sharp cut-off); inactive = mostly above about 56%. Some of the results follow.

The compounds below were run on Wild type (assay: growth inhibition of S. aureus wild type versus tarO mutant, primary screen, teichoic acid synthesis inhibitors, RN4220, OD600 (AID 463173)). Conditions: S. aureus RN4220 wild type/DeltatarO growth, OD600, 18 h, active compounds read low, screened at 18.75 µg/mL (by protocol).
O=C(CNCC1CCCO1)NCc1ccco1 (stereo not given) was tested, and the survival was inactive: 112%. In the case of CC(=O)c1cc(-c2ccccc2)n(CCC(=O)NCc2ccc(C)cc2)c1C, the survival is reported as inactive: 88%. For CCc1ccc(NC(=O)Cn2c(=O)n(CCCCC(=O)NCc3ccc4c(c3)OCO4)c(=O)c3ccccc32)cc1, the survival was inactive: 95%. For CCOc1ccccc1Nc1sc(C(=O)c2ccccc2)c(N)c1C(=O)Nc1ccccc1, the survival was inactive: 99%. CC(C(=O)O)c1nn(C)c(=O)c2ccccc12 (stereo not given) was tested, and the survival was inactive: 124%. With CCOC(=O)c1c(C)n(C2CCCCC2)c2ccc(OCC(N)=O)cc12 the survival was inactive: 120%. With COc1ccc(-c2noc(N(c3nc(-c4ccc(OC)c(OC)c4)no3)c3ccccc3OC)n2)cc1OC the survival was inactive: 130%. CCc1ccc2[nH]c(=O)c(CN(CCCN3CCOCC3)C(=S)NC)cc2c1 was tested, and the survival was inactive: 115%. For CCOc1ccccc1CNc1ccc2cc(S(=O)(=O)N3CCC(C)CC3)ccc2n1, the survival was inactive: 67%. In the case of COc1ccc(-c2nn3c(=O)cc(CN4CCN(C(=O)c5ccc(OC)c(OC)c5)CC4)nc3s2)cc1, the survival is reported as inactive: 68%. For CCOc1ccccc1NC(=O)c1ccc2c(Cl)c3c(nc2c1)CCC3, the survival was inactive: 78%. In the case of CC(C)(C)c1ccc(C(=O)Nc2ccc3c(c2)CCCN3C(=O)c2cccs2)cc1, the survival is reported as inactive: 66%. In the case of Cc1ccc(C)c(N2CCN(C(=O)NC3CCCCC3)CC2)c1, the survival is reported as inactive: 103%. For COC(=O)c1ccc(NC(=O)CSc2nc(C)cc(C)c2C(=O)Nc2ccccc2)cc1, the survival was inactive: 78%. With Cc1nc(-c2ccc(S(=O)(=O)Nc3ccc(C#N)cc3)cc2)co1 the survival was inactive: 126%. With COc1ccc(C(=O)Nc2nccs2)c(OC)c1 the survival was inactive: 118%. COc1cc(NS(=O)(=O)c2cnc(N)nc2)cc(OC)c1 was tested, and the survival was inactive: 64%. CCOc1ccc(/C=C/C(=O)Nc2sc3c(c2C(=O)OC)C(C(=O)OC)CC3)cc1 (stereo not given) was tested, and the survival was inactive: 75%. In the case of CCOC(=O)c1cc(C)n(CC2CCC(C(=O)Nc3ccc(C(C)=O)cc3)CC2)c1C (stereo not given), the survival is reported as inactive: 75%. For COc1cc(C(=O)OCc2cc(=O)n3nc(C4CCCCC4)sc3n2)cc(OC)c1OC, the survival was inactive: 131%. For CCCNS(=O)(=O)c1ccc2nc(NC(=O)c3ccc(F)cc3)sc2c1, the survival was inactive: 78%. With Cc1ccc2nc(N3CCN(c4ccccc4)CC3)c3nnnn3c2c1 the survival was inactive: 78%. For O=C(NCCC1=CCCCC1)c1ccc2c(c1)N(Cc1ccccc1F)C(=O)c1ccccc1S2=O (stereo not given), the survival was inactive: 156%. With CCn1nnc2cc(C(=O)Nc3ccc(Cl)cc3C)ccc21 the survival was inactive: 123%. CCc1cccc(-n2c(=O)c3cccnc3n2CC(=O)NCc2ccccc2)c1 was tested, and the survival was inactive: 74%. In the case of COc1ccc(N2CCN(C(=O)c3cccc(-n4c(C)nc5cccnc54)c3)CC2)cc1, the survival is reported as inactive: 74%. With CCc1cccc(NC(=O)c2cn3c4c(ccc(Cl)c4c2=O)OC(C)C3)c1 (stereo not given) the survival was inactive: 73%. For CC1CCCCN1C(=O)Cn1c(=O)n(-c2ccc(Cl)cc2)c(=O)c2c3c(sc21)CCC3 (stereo not given), the survival was inactive: 121%. In the case of COc1cccc(NC(=O)Cn2c(=O)cc(C)c3c(C)nn(-c4cccc(F)c4)c32)c1, the survival is reported as inactive: 80%. COc1cccc(NC(=O)C2CCN(S(=O)(=O)c3cccc4nonc34)CC2)c1 was tested, and the survival was inactive: 99%. With OCCNCC(O)CN1c2ccccc2Sc2ccccc21 (stereo not given) the survival was inactive: 110%. In the case of CCN1CCN(C(c2ccc(OC)cc2)c2c(O)cc(C)n(Cc3ccco3)c2=O)CC1 (stereo not given), the survival is reported as inactive: 71%. COc1ccc(CNC(=O)c2ccc(NC(=O)N3CC4CCCN4c4ccccc43)cc2)cc1 (stereo not given) was tested, and the survival was inactive: 92%. With CCN(CC)c1nc2c(-c3cccc(Br)c3)nnn2c2ccccc12 the survival was inactive: 69%. With Cc1ccc(-n2ncc(C(=O)NCCc3ccccc3)c2C2CCN(C(=O)OC(C)(C)C)CC2)c(C)c1 the survival was inactive: 81%. In the case of O=c1[nH]c(=O)n(-c2ccccc2)c(O)c1C=Nc1ccc(S(=O)(=O)N2CCCCC2)cc1, the survival is reported as inactive: 101%. With O=C(CSc1ccccc1)Nc1ccc(NC(=O)c2ccco2)cc1 the survival was inactive: 105%. In the case of COCCCn1c(=N)c(C(=O)NCC2CCCO2)cc2c(=O)n3cc(C)ccc3nc21 (stereo not given), the survival is reported as inactive: 71%. In the case of Cc1ccc(Nc2c(-c3ccc(N(C)C)cc3)nc3nc[nH]n23)cc1, the survival is reported as inactive: 88%. With Cc1ccc2c(=O)cc(C(=O)Nc3ccc(S(=O)(=O)N4CCC(C)CC4)cc3)oc2c1C the survival was inactive: 88%. CC(=O)c1ccc(S(=O)(=O)Nc2ccc(-c3ccc(N4CCCCCC4)nn3)cc2)cc1 was tested, and the survival was inactive: 83%. COc1cccc(-c2nn3c(=O)cc(CN4CCN(S(=O)(=O)c5ccc(C)cc5)CC4)nc3s2)c1 was tested, and the survival was inactive: 99%. Cc1ccc(CSc2nnc(-n3c(=O)c(C#N)cc4c(=O)n5cccc(C)c5nc43)s2)cc1 was tested, and the survival was inactive: 96%. For O=C(Cc1ccccc1)Nc1sc2c(c1C(=O)Nc1ccccc1)CCCCC2, the survival was inactive: 78%. With COc1cc(C2CC(=O)Nc3c2c(C)nn3-c2nc(C)cc(C)n2)cc(OC)c1O (stereo not given) the survival was inactive: 82%. In the case of COc1ccc(-c2nc3ccccc3n3c(-c4cccc(C)c4)c4c(=O)n(C)c(=O)n(C)c4c23)cc1, the survival is reported as inactive: 74%. With Cc1ccc(C(=O)C2CCN(C(=O)Cc3ccccc3)CC2)cc1 the survival was inactive: 105%. With CSc1nc(=O)c2c(n1C)NC(=O)CC2c1ccccc1OC(C)C (stereo not given) the survival was inactive: 84%. O=C(CC1(O)C(=O)N(CCc2ccccc2)c2ccc(Br)cc21)c1ccc(F)cc1 (stereo not given) was tested, and the survival was active: 4%. In the case of CCOc1ccc(CCNC(=O)CCCn2c(=O)c3cccn3c3cccnc32)cc1OCC, the survival is reported as inactive: 90%. In the case of CCc1ccc2c(c1)c(=O)c(S(=O)(=O)c1ccc(Cl)cc1)cn2CC, the survival is reported as inactive: 89%. With Cc1nn(Cc2ccc(Cl)c(Cl)c2)c(C)c1NC(=O)c1noc2c1CCc1ccccc1-2 the survival was inactive: 72%. COc1cccc(-c2cn3c(n2)sc2cc(C(=O)NCCCc4ccccc4)ccc23)c1 was tested, and the survival was inactive: 49%. CSc1ccc(CNC(=O)C2CCCN(S(=O)(=O)N(C)c3ccc(F)cc3)C2)cc1 (stereo not given) was tested, and the survival was inactive: 88%. For COC(=O)CC1Oc2ccccc2-n2cc(-c3ccc(C)cc3)nc21 (stereo not given), the survival was inactive: 78%. For CCSc1nsc(NC(=O)Nc2cccc(F)c2)n1, the survival was active: 0%. With COc1ccc(/C=N/NC(=O)c2ccc3c(c2)NC(=O)C(C)(C)O3)cc1OC the survival was inactive: 106%. In the case of COc1ccccc1CC(=O)Nc1cccc(C)n1, the survival is reported as inactive: 104%. With COc1cccc(CNCCSc2nnnn2C)c1OCc1ccccc1 the survival was inactive: 85%. In the case of CC(C)CCNC(=O)C1CC(=O)N(c2ccccc2)C1 (stereo not given), the survival is reported as inactive: 103%. In the case of Cc1ccc2nc(NS(C)(=O)=O)sc2c1, the survival is reported as inactive: 101%. Nc1c(C(=O)NCc2ccc(Cl)cc2Cl)nnn1Cc1ccc(Br)cc1 was tested, and the survival was inactive: 64%. Fc1ccc(CN(Cc2ccco2)Cc2nnnn2CCc2ccccc2)cc1 was tested, and the survival was inactive: 125%. With CCc1ccc(CNC(=O)c2cc3cc(S(=O)(=O)N4CCCCC4)ccc3n2C)cc1 the survival was inactive: 47%. In the case of CCCn1ccc2c(OCC(=O)Nc3cc(C)ccc3C)cccc2c1=O, the survival is reported as inactive: 124%. For Cc1ccc(S(=O)(=O)NCC2CCC(C(=O)NCc3ccc(F)cc3)CC2)cc1 (stereo not given), the survival was inactive: 75%. For COc1ccc(OCC(=O)Nc2cc(-c3ccccc3F)nn2-c2ccccc2)cc1, the survival was inactive: 73%. In the case of COc1ccc(C)cc1NC(=O)C1CCN(S(=O)(=O)c2c(C)noc2/C=C/c2ccco2)CC1, the survival is reported as inactive: 73%. In the case of COc1cccc(-n2c(-c3ccc(Cl)cc3)cc3c2CC(C)(C)CC3=O)c1, the survival is reported as inactive: 16%. For O=C(Nc1ccc(F)cc1F)C(Cc1ccccc1)N1Cc2ccccc2C1=O (stereo not given), the survival was active: -6%. For COc1ccc(C2(C(=O)N3CCCC3)CCCC2)cc1OC, the survival was inactive: 102%. COc1cc2c(=O)n(Cc3ccccc3Cl)c(=O)n(CC(=O)Nc3ccccc3)c2cc1OC was tested, and the survival was inactive: 70%. For O=C(CCC(=O)N1CC2CCCN2c2ccccc21)NCc1cccc(Cl)c1 (stereo not given), the survival was active: 10%. Cc1ccc(-c2nnc(SCC(=O)NC3CCCC3)nc2-c2ccc(C)cc2)cc1 was tested, and the survival was inactive: 85%. In the case of Cc1ccc(C(=O)Nc2nc3ccc(S(=O)(=O)N4CCCC4)cc3s2)cc1, the survival is reported as inactive: 89%. In the case of CC(C)CNC(=O)C1C2C=CC(C2)C1C(=O)O (stereo not given), the survival is reported as inactive: 108%. With CCOc1ccc(NC(=O)CCC(=O)N2CC(C)Oc3ccc(C)cc32)cc1 (stereo not given) the survival was inactive: 83%. In the case of COc1ccc(CN2C(=O)c3oc4ccc(F)cc4c(=O)c3C2c2ccc(O)cc2)cc1 (stereo not given), the survival is reported as inactive: 100%. For CC(C)CNS(=O)(=O)c1ccccc1, the survival was inactive: 120%. In the case of CCCCn1cc2c(c1-c1ccccc1Br)c(=O)n(C)c(=O)n2C, the survival is reported as inactive: 89%. For Cc1nc(N2CCOCC2)c2c(C(=O)NCCc3ccccc3)c(C)oc2n1, the survival was active: -3%. For CC(C)Nc1nc(NC(C)C)nc(N(C)C)n1, the survival was inactive: 115%. Cc1ccc(C(=O)n2nc(-c3ccco3)nc2NCc2cccs2)cc1 was tested, and the survival was inactive: 88%. With CCOC(=O)C1CCN(S(=O)(=O)c2cc3c4c(c2)CC(=O)N4CCC3)CC1 the survival was inactive: 88%. For CCC1=NN(C(=O)Cc2ccccc2)C(O)(c2ccccc2)C1 (stereo not given), the survival was inactive: 107%. C#CCOc1ccc(C2C3=C(CCCC3=O)N(CCC(=O)O)C3=C2C(=O)CCC3)cc1 was tested, and the survival was inactive: 118%. With O=C(CSc1nc2c(c(=O)[nH]1)CN(Cc1ccc(F)cc1)CC2)Nc1ccccc1Cl the survival was inactive: 79%. With O=C(NCCc1ccccc1Cl)c1ccc2c(c1)nc1n2CCOC1 the survival was inactive: 76%. CN(C)S(=O)(=O)n1cc(/C=C(\NC(=O)c2ccccc2Cl)C(=O)NCCCn2ccnc2)c2ccccc21 was tested, and the survival was inactive: 103%. In the case of O=C(NCCc1ccccc1)C1(c2cccs2)CCOCC1, the survival is reported as inactive: 73%.
